Here are results for 31 variants from the GPR68 mutational scans of Howard et al. (2025).

Scores with a large standard error are left out. Not listed are two conditions whose scores span a narrow range. Read del as a deletion of the residues named and ins as an insertion between two positions. For some of these results: The data file names ogerin without a concentration.

To fix the notation:
B1: GPR68, Q15743 (parent)
chain: MGNITADNSSMSCTIDHTIHQTLAPVVYVTVLVVGFPANCLSLYFGYLQIKARNELGVYLCNLTVADLFYICSLPFWLQYVLQHDNWSHGDLSCQVCGILLYENIYISVGFLCCISVDRYLAVAHPFRFHQFRTLKAAVGVSVVIWAKELLTSIYFLMHEEVIEDENQHRVCFEHYPIQAWQRAINYYRFLVGFLFPICLLLASYQGILRAVRRSHGTQKSRKDQIQRLVLSTVVIFLACFLPYHVLLLVRSVWEASCDFAKGVFNAYHFSLLLTSFNCVADPVLYCFVSETTHRDLARLRGACLAFLTCSRTGRAREAYPLGAPEASGKSGAQGEEPELLTKLHPAFQTPNSPGSGGFPTGRLA

Data set [1] covers variants of B1. Put plainly: cAMP reporter score (Enrich2 score, wild type = 0); higher = more signal; HEK293T, FACS bins.
The variants in data set [2] derive from B1. Put plainly: surface expression score (Enrich2 score, wild type = 0); higher = more signal; HEK293T, FACS bins.

As for L344del, the cAMP reporter score in data set [1] (pH 5.5) was 0.745; in data set [1] (pH 6, modulator: ogerin), -0.034; in data set [1] (pH 6.5, modulator: ogerin) it was -0.441. Also, the surface expression score in data set [2] amounted to 1.2.
Take E337_P338insGSG: the cAMP reporter score in data set [1] (pH 5.5) turned out to be 0.353; in data set [1] (pH 6), 0.198; in data set [1] (pH 6, modulator: ogerin), 0.839; in data set [1] (pH 6.5, modulator: ogerin), 0.732. Further, the surface expression score in data set [2] was 1.03.
For the variant S328_G329insG, the cAMP reporter score in data set [1] (pH 5.5) is 1.31; in data set [1] (pH 6), -0.367; in data set [1] (pH 6, modulator: ogerin), 1.39; in data set [1] (pH 6.5, modulator: ogerin) it was 1.46. In data set [2], the surface expression score was 1.31.
N352_S353insG: the cAMP reporter score in data set [1] (pH 5.5) was -0.425; in data set [1] (pH 6), -0.445; in data set [1] (pH 6, modulator: ogerin), -0.406; in data set [1] (pH 6.5, modulator: ogerin), 0.94. In data set [2], the surface expression score is -0.516.
With K330_S331insGS, the cAMP reporter score was 0.643 in data set [1] (pH 5.5); -0.242 in data set [1] (pH 6); 1.74 in data set [1] (pH 6, modulator: ogerin); 0.771 in data set [1] (pH 6.5, modulator: ogerin). In addition, in data set [2], the surface expression score turned out to be 0.814.
For G335S, the cAMP reporter score was found to be 0.619 in data set [1] (pH 5.5); 0.057 in data set [1] (pH 6); 0.188 in data set [1] (pH 6, modulator: ogerin); 1.08 in data set [1] (pH 6.5, modulator: ogerin). Moreover, the surface expression score in data set [2] was -0.637.
In the case of G335A, the cAMP reporter score in data set [1] (pH 5.5) is 1.02; in data set [1] (pH 6) it was -0.391; in data set [1] (pH 6, modulator: ogerin), 0.843; in data set [1] (pH 6.5, modulator: ogerin), 0.116. Besides, the surface expression score in data set [2] was 0.657.
Take G335R: the cAMP reporter score was 1.38 in data set [1] (pH 5.5); 1.37 in data set [1] (pH 6); 1.17 in data set [1] (pH 6, modulator: ogerin); 0.996 in data set [1] (pH 6.5, modulator: ogerin). Besides, the surface expression score in data set [2] turned out to be 0.627.
Taken in the same sequence, the figures for G335H were -0.608, -1.48, -1.07, -1.12 and -0.884.
Regarding G335I, the cAMP reporter score is 0.041 in data set [1] (pH 5.5); -0.731 in data set [1] (pH 6); 0.239 in data set [1] (pH 6, modulator: ogerin); -0.111 in data set [1] (pH 6.5, modulator: ogerin). In addition, the surface expression score in data set [2] is 0.157.
Consider G335Q, for which the cAMP reporter score is 0.452 in data set [1] (pH 5.5); -0.32 in data set [1] (pH 6); 0.216 in data set [1] (pH 6, modulator: ogerin); -0.141 in data set [1] (pH 6.5, modulator: ogerin). For the same variant, in data set [2], the surface expression score stood at 0.534.
Turning to G335E, the cAMP reporter score in data set [1] (pH 5.5) was -0.048; in data set [1] (pH 6) it was -0.113; in data set [1] (pH 6, modulator: ogerin) it was -0.179; in data set [1] (pH 6.5, modulator: ogerin), 0.134. In data set [2], the surface expression score stood at 0.269.
Turning to G335L, the cAMP reporter score was found to be 0.737 in data set [1] (pH 5.5); 0.615 in data set [1] (pH 6); 0.616 in data set [1] (pH 6, modulator: ogerin); 0.898 in data set [1] (pH 6.5, modulator: ogerin). Moreover, the surface expression score in data set [2] is 0.877.
Turning to G335C, the cAMP reporter score is -0.456 in data set [1] (pH 5.5); 0.203 in data set [1] (pH 6); -0.296 in data set [1] (pH 6, modulator: ogerin); -0.045 in data set [1] (pH 6.5, modulator: ogerin). Moreover, the surface expression score in data set [2] is -0.342.
On to G335P, for which the cAMP reporter score in data set [1] (pH 5.5) was -0.465; in data set [1] (pH 6, modulator: ogerin) it was -1.17; in data set [1] (pH 6.5, modulator: ogerin), -0.856. Also, in data set [2], the surface expression score stood at 0.54.
Turning to G335F, the cAMP reporter score in data set [1] (pH 5.5) worked out at 0.271; in data set [1] (pH 6), 0.975; in data set [1] (pH 6, modulator: ogerin), 0.884; in data set [1] (pH 6.5, modulator: ogerin), 0.017.
As for G335K, the cAMP reporter score in data set [1] (pH 5.5) came out at 0.525; in data set [1] (pH 6), 2.14; in data set [1] (pH 6, modulator: ogerin), 0.735; in data set [1] (pH 6.5, modulator: ogerin) it was 0.792. Further, the surface expression score in data set [2] was 1.69.
For the variant G335Y, the cAMP reporter score stood at 1.45 in data set [1] (pH 5.5); 0.809 in data set [1] (pH 6); 1.39 in data set [1] (pH 6, modulator: ogerin); 0.168 in data set [1] (pH 6.5, modulator: ogerin). Besides, the surface expression score in data set [2] stood at 1.12.
Take G335T: the cAMP reporter score is 0.78 in data set [1] (pH 5.5); 0.747 in data set [1] (pH 6); 0.892 in data set [1] (pH 6, modulator: ogerin); 0.827 in data set [1] (pH 6.5, modulator: ogerin). In addition, the surface expression score in data set [2] came out at 0.192.
On to G335W, for which the cAMP reporter score in data set [1] (pH 5.5) was 0.589; in data set [1] (pH 6), -0.834; in data set [1] (pH 6, modulator: ogerin), 0.472; in data set [1] (pH 6.5, modulator: ogerin) it was 0.79. In addition, the surface expression score in data set [2] was -0.25.
G335D: the cAMP reporter score in data set [1] (pH 5.5) worked out at 0.4; in data set [1] (pH 6), 0.624; in data set [1] (pH 6, modulator: ogerin), 0.541; in data set [1] (pH 6.5, modulator: ogerin) it was 1.65. Further, in data set [2], the surface expression score amounted to 1.11.
Taken in the same sequence, the figures for G335V were 0.464, 0.043, 0.501, 0.731 and 0.86.
Consider G335N, for which the cAMP reporter score in data set [1] (pH 5.5) is 0.284; in data set [1] (pH 6) it was 0.138; in data set [1] (pH 6, modulator: ogerin), 0.204; in data set [1] (pH 6.5, modulator: ogerin) it was -0.175. Also, the surface expression score in data set [2] came to 0.354.
For G335M, the cAMP reporter score in data set [1] (pH 5.5) was 0.393; in data set [1] (pH 6), -0.12; in data set [1] (pH 6, modulator: ogerin), 0.725; in data set [1] (pH 6.5, modulator: ogerin), 0.736. Further, the surface expression score in data set [2] was 0.302.
E337_P338del: the cAMP reporter score came out at 0.506 in data set [1] (pH 5.5); 2.12 in data set [1] (pH 6); 0.187 in data set [1] (pH 6, modulator: ogerin); 0.365 in data set [1] (pH 6.5, modulator: ogerin). The surface expression score in data set [2] was 0.828.
Take S328W: the cAMP reporter score in data set [1] (pH 5.5) was 2.06; in data set [1] (pH 6) it was -0.064; in data set [1] (pH 6, modulator: ogerin) it was 1.39; in data set [1] (pH 6.5, modulator: ogerin) it was 0.672. For the same variant, in data set [2], the surface expression score is 0.038.
Taken in the same sequence, the figures for S328V were 0.72, 1.75, 1.02, 1.76 and 1.38.
In the case of S328Y, the cAMP reporter score in data set [1] (pH 5.5) is -0.159; in data set [1] (pH 6), -0.638; in data set [1] (pH 6, modulator: ogerin), -0.568; in data set [1] (pH 6.5, modulator: ogerin), -0.003. Moreover, the surface expression score in data set [2] is -0.379.
Take L341_T342insGSG: the cAMP reporter score in data set [1] (pH 5.5) was 0.836; in data set [1] (pH 6, modulator: ogerin) it was 0.38; in data set [1] (pH 6.5, modulator: ogerin) it was 0.857. Besides, in data set [2], the surface expression score stood at 0.851.
With N352del, the cAMP reporter score in data set [1] (pH 5.5) came to 1.18; in data set [1] (pH 6), 0.519; in data set [1] (pH 6, modulator: ogerin) it was 0.585; in data set [1] (pH 6.5, modulator: ogerin), 0.27. The surface expression score in data set [2] stood at 0.173.
As to E336_E337insGSG, the cAMP reporter score is 0.54 in data set [1] (pH 5.5); 0.625 in data set [1] (pH 6); 0.582 in data set [1] (pH 6, modulator: ogerin); 0.92 in data set [1] (pH 6.5, modulator: ogerin). The surface expression score in data set [2] came out at 0.993.
